Measured values taken from the supplement of paper PMC8728848.
This is one part of the list.

Assays:
Experiment in all cases: glycan array binding signal (z-score within array); higher = stronger binding
Details in all cases: glycan notation: IUPAC condensed, linker removed; mutation: Y228A
[1] = biological target: Fuc(a1-2)Gal6S(b1-3)GlcNAc
How it was run: (§1)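 Glycan array data were curated from 3228 arrays in the Consortium for Functional Glycomics database and kept only where the protein sequence was available. Glycan names were converted to IUPAC-condensed notation, and columns mapping to the same glycan were averaged. The binding signal is a within-array Z-score, averaged across arrays of the same protein sequence at different concentrations or buffers and across linkers. Negative Z-scores can be read as non-binding.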

[2] = biological target: Fuc(a1-2)Gal6S(b1-3)GlcNAc6S
How it was run: as §1

[3] = biological target: Fuc(a1-2)Gal6S(b1-4)Glc
How it was run: as §1

[4] = biological target: Fuc(a1-2)Gal6S(b1-4)Glc6S
How it was run: as §1

[5] = biological target: Fuc(a1-2)[Gal(a1-3)]Gal
How it was run: as §1

[6] = biological target: Fuc(a1-2)[Gal(a1-3)]Gal(b1-3)GalNAc
How it was run: as §1

[7] = biological target: Fuc(a1-2)[Gal(a1-3)]Gal(b1-3)GalNAc(b1-3)Gal(a1-4)Gal(b1-4)Glc
How it was run: as §1

[8] = biological target: Fuc(a1-2)[Gal(a1-3)]Gal(b1-3)GlcNAc
How it was run: as §1

[9] = biological target: Fuc(a1-2)[Gal(a1-3)]Gal(b1-3)GlcNAc(b1-2)Man(a1-3)[Fuc(a1-2)[Gal(a1-3)]Gal(b1-3)GlcNAc(b1-2)Man(a1-6)]Man(b1-4)GlcNAc(b1-4)GlcNAc
How it was run: as §1

[10] = biological target: Fuc(a1-2)[Gal(a1-3)]Gal(b1-3)GlcNAc(b1-2)Man(a1-3)[Fuc(a1-2)[Gal(a1-3)]Gal(b1-3)GlcNAc(b1-2)Man(a1-6)]Man(b1-4)GlcNAc(b1-4)[Fuc(a1-6)]GlcNAc
How it was run: as §1

[11] = biological target: Fuc(a1-2)[Gal(a1-3)]Gal(b1-3)GlcNAc(b1-3)GalNAc
How it was run: as §1

[12] = biological target: Fuc(a1-2)[Gal(a1-3)]Gal(b1-3)GlcNAc(b1-6)GalNAc
How it was run: as §1

[13] = biological target: Fuc(a1-2)[Gal(a1-3)]Gal(b1-4)Glc
How it was run: as §1

[14] = biological target: Fuc(a1-2)[Gal(a1-3)]Gal(b1-4)GlcNAc
How it was run: as §1

[15] = biological target: Fuc(a1-2)[Gal(a1-3)]Gal(b1-4)GlcNAc(b1-2)Man
How it was run: as §1

[16] = biological target: Fuc(a1-2)[Gal(a1-3)]Gal(b1-4)GlcNAc(b1-2)Man(a1-3)[Fuc(a1-2)[Gal(a1-3)]Gal(b1-4)GlcNAc(b1-2)Man(a1-6)]Man(b1-4)GlcNAc(b1-4)GlcNAc
How it was run: as §1

[17] = biological target: Fuc(a1-2)[Gal(a1-3)]Gal(b1-4)GlcNAc(b1-2)Man(a1-3)[Fuc(a1-2)[Gal(a1-3)]Gal(b1-4)GlcNAc(b1-2)Man(a1-6)]Man(b1-4)GlcNAc(b1-4)[Fuc(a1-6)]GlcNAc
How it was run: as §1

[18] = biological target: Fuc(a1-2)[Gal(a1-3)]Gal(b1-4)GlcNAc(b1-3)GalNAc
How it was run: as §1

[19] = biological target: Fuc(a1-2)[Gal(a1-3)]Gal(b1-4)GlcNAc(b1-3)[Fuc(a1-2)[Gal(a1-3)]Gal(b1-4)GlcNAc(b1-6)]GalNAc
How it was run: as §1

[20] = biological target: Fuc(a1-2)[Gal(a1-3)]Gal(b1-4)GlcNAc(b1-6)GalNAc
How it was run: as §1

[21] = biological target: Fuc(a1-2)[Gal(a1-3)]Gal(b1-4)[Fuc(a1-3)]Glc
How it was run: as §1

[22] = biological target: Fuc(a1-2)[Gal(a1-3)]Gal(b1-4)[Fuc(a1-3)]GlcNAc
How it was run: as §1

[23] = biological target: Fuc(a1-2)[Gal(a1-3)]Gal(b1-4)[Fuc(a1-3)]GlcNAc(b1-3)GalNAc
How it was run: as §1

[24] = biological target: Fuc(a1-2)[Gal(a1-4)]Gal(b1-4)GlcNAc
How it was run: as §1

[25] = biological target: Fuc(a1-2)[GalNAc(a1-3)]Gal
How it was run: as §1

[26] = biological target: Fuc(a1-2)[GalNAc(a1-3)]Gal(b1-3)GalNAc(a1-3)[Fuc(a1-2)]Gal(b1-4)GlcNAc
How it was run: as §1

[27] = biological target: Fuc(a1-2)[GalNAc(a1-3)]Gal(b1-3)GalNAc(b1-3)Gal(a1-4)Gal(b1-4)Glc
How it was run: as §1

[28] = biological target: Fuc(a1-2)[GalNAc(a1-3)]Gal(b1-3)GlcNAc
How it was run: as §1

[29] = biological target: Fuc(a1-2)[GalNAc(a1-3)]Gal(b1-3)GlcNAc(b1-2)Man(a1-3)[Fuc(a1-2)[GalNAc(a1-3)]Gal(b1-3)GlcNAc(b1-2)Man(a1-6)]Man(b1-4)GlcNAc(b1-4)GlcNAc
How it was run: as §1

[30] = biological target: Fuc(a1-2)[GalNAc(a1-3)]Gal(b1-3)GlcNAc(b1-2)Man(a1-3)[Fuc(a1-2)[GalNAc(a1-3)]Gal(b1-3)GlcNAc(b1-2)Man(a1-6)]Man(b1-4)GlcNAc(b1-4)[Fuc(a1-6)]GlcNAc
How it was run: as §1

[31] = biological target: Fuc(a1-2)[GalNAc(a1-3)]Gal(b1-3)GlcNAc(b1-3)GalNAc
How it was run: as §1

[32] = biological target: Fuc(a1-2)[GalNAc(a1-3)]Gal(b1-3)GlcNAc(b1-6)GalNAc
How it was run: as §1

[33] = biological target: Fuc(a1-2)[GalNAc(a1-3)]Gal(b1-4)Glc
How it was run: as §1

[34] = biological target: Fuc(a1-2)[GalNAc(a1-3)]Gal(b1-4)GlcNAc
How it was run: as §1

[35] = biological target: Fuc(a1-2)[GalNAc(a1-3)]Gal(b1-4)GlcNAc(b1-2)Man
How it was run: as §1

[36] = biological target: Fuc(a1-2)[GalNAc(a1-3)]Gal(b1-4)GlcNAc(b1-2)Man(a1-3)[Fuc(a1-2)[GalNAc(a1-3)]Gal(b1-4)GlcNAc(b1-2)Man(a1-6)]Man(b1-4)GlcNAc(b1-4)GlcNAc
How it was run: as §1

[37] = biological target: Fuc(a1-2)[GalNAc(a1-3)]Gal(b1-4)GlcNAc(b1-2)Man(a1-3)[Fuc(a1-2)[GalNAc(a1-3)]Gal(b1-4)GlcNAc(b1-2)Man(a1-6)]Man(b1-4)GlcNAc(b1-4)[Fuc(a1-6)]GlcNAc
How it was run: as §1

[38] = biological target: Fuc(a1-2)[GalNAc(a1-3)]Gal(b1-4)GlcNAc(b1-3)Gal(b1-4)GlcNAc
How it was run: as §1

[39] = biological target: Fuc(a1-2)[GalNAc(a1-3)]Gal(b1-4)GlcNAc(b1-3)Gal(b1-4)GlcNAc(b1-3)Gal(b1-4)GlcNAc
How it was run: as §1

[40] = biological target: Fuc(a1-2)[GalNAc(a1-3)]Gal(b1-4)GlcNAc(b1-3)GalNAc
How it was run: as §1

[41] = biological target: Fuc(a1-2)[GalNAc(a1-3)]Gal(b1-4)GlcNAc(b1-3)[Fuc(a1-2)[GalNAc(a1-3)]Gal(b1-4)GlcNAc(b1-6)]GalNAc
How it was run: as §1

[42] = biological target: Fuc(a1-2)[GalNAc(a1-3)]Gal(b1-4)GlcNAc(b1-6)GalNAc
How it was run: as §1

[43] = biological target: Fuc(a1-2)[GalNAc(a1-3)]Gal(b1-4)[Fuc(a1-3)]GlcNAc
How it was run: as §1

[44] = biological target: Fuc(a1-2)[GalNAc(a1-3)]Gal(b1-4)[Fuc(a1-3)]GlcNAc(b1-3)GalNAc
How it was run: as §1

[45] = biological target: Fuc(a1-2)[GalNAc(a1-4)]Gal(b1-4)GlcNAc
How it was run: as §1

B1: Epa1-NP-mutant-Y228A (Candida glabrata), Q6VBJ0 (protein)
chain: MILNPALFLNKCVCIYTTLILLLLTNGGYATSSNDISLASKDPTTFPLGCSPDITTPKKGLSMELYSYDFRKKGSYPCWDAAYLDPNYPRTGYKSHRLLAKVDGVTGNINFYYHATKGCTPQLGHLPASYNYPKPLTMTNFTMLLYGYFRPKVTGFHTFTISADDLLFVNFGAGNAFDCCRRDSSADHFGNYQAYAIWGSKTAKDELTVHLDAGVYYPIRLFYNNREADGALSFTFKTESNENTVSDFSEYFFSLDDTEEGCPGLISYDSSCASVKTSKIIGIDYHTETPNENLVPITKTIYHLGIPCTGTTTTPLCGSGFYDPLANKCVTINTSSTSSVTKTTSHTTSKEVSFHSSISSQKTLIPKSIPSPYGPIKSQSIPTEMETSSEISSSEYAFSDVISTPSHSPYTKKHSSLNSSSYTSTVIHSLTSYSISQGIFSTSLSEQNITSKSSTDKFSTATSMSNNITQSSIIISQFSTNNENYTTTSMHTSSDKISTETLNNSISTTTSILFSNSSTILKNNTTIISSDKDTHYHPVNPTIVCSTNKTEIICASITQPSISNSNNHWSSSVLKFNSTTVRSTLPSSAGSNETSINVPFSSSTESNTSTSSTSTSNSKMVRSTLPSSAGSNETSISVPFSSSTESNTSTSSTSTSNSKMVRSTLPSSAGSNETSINVPFSSSTESNTSTSSTSTSNSKTVRSTPFSSAGIIMTSLSQRNNKSASSYASSNSKCYNTADSCRKVHSTPSYLLTSSYTSEGVDYDCSLVSTKLKINDTNCVNNKHTTKSCLKTSVTTTIPTLEIKTARKSSSNTIGLHSYPTSSPNKSISSAPIIGYISSFKTIKTASPSYQTSDLTTITTITSLNNPGSTAVENTHESNDKSRKTSSNDISSKHSVIKETKDAVESSNKSHQTNTLKCSSIIIASSSHNSYESLGGTTLTLTLSKVYSPQNNDTLPFLEISEVNPSRTVLPESSKMMQYLTSTEERNKTARNTIATNIVSISTFHFEGEGNAIRMGYTQLLLMLIGIIVMNIGT
glycan array binding signal (z-score) [1]: -0.21 | glycan array binding signal (z-score) [2]: -0.247 | glycan array binding signal (z-score) [3]: -0.212 | glycan array binding signal (z-score) [4]: -0.325 | glycan array binding signal (z-score) [5]: -0.267 | glycan array binding signal (z-score) [6]: -0.219 | glycan array binding signal (z-score) [7]: -0.282 | glycan array binding signal (z-score) [8]: -0.248 | glycan array binding signal (z-score) [9]: -0.265 | glycan array binding signal (z-score) [10]: -0.31 | glycan array binding signal (z-score) [11]: -0.119 | glycan array binding signal (z-score) [12]: -0.329 | glycan array binding signal (z-score) [13]: -0.293 | glycan array binding signal (z-score) [14]: -0.244 | glycan array binding signal (z-score) [15]: -0.292 | glycan array binding signal (z-score) [16]: -0.11 | glycan array binding signal (z-score) [17]: -0.271 | glycan array binding signal (z-score) [18]: -0.074 | glycan array binding signal (z-score) [19]: -0.15 | glycan array binding signal (z-score) [20]: 0.01 | glycan array binding signal (z-score) [21]: -0.203 | glycan array binding signal (z-score) [22]: -0.183 | glycan array binding signal (z-score) [23]: -0.061 | glycan array binding signal (z-score) [24]: -0.062 | glycan array binding signal (z-score) [25]: -0.148 | glycan array binding signal (z-score) [26]: -0.281 | glycan array binding signal (z-score) [27]: -0.248 | glycan array binding signal (z-score) [28]: -0.2 | glycan array binding signal (z-score) [29]: -0.295 | glycan array binding signal (z-score) [30]: -0.178 | glycan array binding signal (z-score) [31]: 0.018 | glycan array binding signal (z-score) [32]: -0.252 | glycan array binding signal (z-score) [33]: -0.225 | glycan array binding signal (z-score) [34]: -0.198 | glycan array binding signal (z-score) [35]: -0.307 | glycan array binding signal (z-score) [36]: -0.148 | glycan array binding signal (z-score) [37]: -0.147 | glycan array binding signal (z-score) [38]: -0.101 | glycan array binding signal (z-score) [39]: -0.057 | glycan array binding signal (z-score) [40]: -0.186 | glycan array binding signal (z-score) [41]: -0.156 | glycan array binding signal (z-score) [42]: -0.248 | glycan array binding signal (z-score) [43]: -0.096 | glycan array binding signal (z-score) [44]: -0.066 | glycan array binding signal (z-score) [45]: -0.183
